Source: ChEMBL document CHEMBL4888484, “Replenishing the malaria drug discovery pipeline: Screening and hit evaluation of the MMV Hit Generation Library 1 (HGL1) against asexual blood stage Plasmodium falciparum ,using a nano luciferase reporter read-out” (2022)
The campaign covered roughly 150,000 compounds. About 540 (0.36%) showed an effect of 50% or more. The list shows a part of the results. Where a SMILES comes first, the peptide text is derived from it. The star is where a group is joined. Cbz = O=C(OCc1ccccc1)*

Each compound was assayed on Plasmodium falciparum (assay: Primary screen in NF54 nanoGlo assay, in single point, at 2uM, 72h; a lower Z score goes with more inhibition). Details: timepoint 72 hour.
Format: functional, Erythrocyte

Structure (SMILES)	% Inhibition	Z score
Cc1nsc(C(=O)N2CCC(c3nc4c(s3)CCC4)CC2)n1	-14%	1.69
Cc1nsc2ncn(Cc3cc(-c4ccccc4)on3)c(=O)c12	-16%	2.03
Cc1ccc(-n2nc3c(=O)n([C@@H](C)C(=O)NCc4ccc(Cl)cc4)nc(C)c3c2C)cc1	10%	-1.13
Cc1ccc(-n2cc3c(N4CCC(C(=O)N5CCN(c6ccccc6F)CC5)CC4)ncnc3n2)cc1	-25%	2.25
CCOc1nnc(CNC2(C(N)=O)CCCCC2)s1	-5%	0.67
CCN1CCN(C2CN(C(=O)c3cc(C)cc(C)c3)C2)CC1	7%	-0.84
CCOc1ccc(C(=O)NCCn2nc(C3CC3)ccc2=O)nn1	3%	-0.37
C[C@@H](CC#N)NC(=O)c1sccc1OC(F)F	-9%	0.95
C[C@@H](C1CCN(c2ccc3cc(Cl)ccc3n2)CC1)N1CCCC1	-13%	1.78
CCN(C)C(=O)Nc1cc(F)ccc1Br	-2%	0.21
c1cn(C2CCN(CCc3ccc4c(c3)CCO4)CC2)cn1	-3%	0.37
CCCc1cc(C(=O)N[C@H](c2ccccn2)C(F)(F)F)[nH]n1	-20%	2.04
CN1CCc2c([nH]c3ccccc23)C12CCN(C(=O)Cc1cccnc1)CC2	3%	-0.57
COc1ccc(CNC(=O)Cn2cnc3c(C(N)=O)nsc3c2=O)cc1	-4%	0.48
C=C(C)Cn1c(C(C)c2cnn(C)c2)nnc1N1C[C@@H](C)O[C@@H](C)C1 (some centres not stated)	-14%	1.44
CCCc1cc(C(=O)N2CCC[C@H](C(=O)c3cccc4ccccc34)C2)n(C)n1	-7%	0.97
Cc1cc(C)nc(NC2=NC(=O)CN2c2cc(Cl)cc(Cl)c2)n1	7%	-0.96
CCOc1ncccc1-c1cnn(CC)c1C	-14%	2.06
CC(CNC(=O)NC1CCN(c2cnn(C)c2)C1)Cc1cccs1 (configuration not stated)	-4%	0.44
COc1ccccc1-c1ncc(CN2CCC[C@H]2c2ccc(C(N)=O)s2)cn1	-12%	1.81
Cc1ccc(-n2ccnc2)c(C(=O)N2CCC3(CC2)NC(=O)CO3)c1	6%	-1.03
COC(C)(C)CCN1CCOc2ccccc2[C@@H]1C(=O)O	-8%	1.67

Structure (SMILES)	% Inhibition	Z score
C#CCN[C@@H](CCCO)c1ccccc1	1%	-0.13
Cn1nc(C(=O)N(CCCn2ccnc2)Cc2cccnc2)c2c1CCCC2	-2%	0.35
CN(Cc1ccccc1)C(=O)c1cc(-c2ccco2)n[nH]1	-8%	1.22
Cc1ccc(S(=O)(=O)CCc2nc(-c3cccnc3)n[nH]2)cc1	-4%	0.8
Cc1nc(C(=O)N(C[C@H]2CCCO2)c2ccncc2)nn1-c1ccccc1Cl	-4%	0.44
Cc1nn(C)c(C)c1S(=O)(=O)N1CC[C@H](CCOc2ccccc2)C1	-2%	0.34
O=C(NCC[C@H]1CCOC1)c1ccc(-c2ccc3cc[nH]c3c2)cc1	-13%	1.2
COc1ccc(NC(=O)C2CC(c3cccc(C)c3)CN(Cc3cccc(F)c3)C2)cc1OC (configuration not stated)	-4%	0.79
CN1CCN(C[C@H]2CCCN(Cc3cc(C(C)(C)C)[nH]n3)C2)CC1	-7%	1.34
Cc1ccnc(N(C(=O)c2ccc(C)c(Cl)c2)C(=O)c2ccc(C)c(Cl)c2)c1	-1%	0.1
C[C@@]12CN(c3ncnc(N)c3Cl)CC1[C@H]1CC[C@@H]2C1 (some centres not stated)	-3%	0.36
Cc1cc(C)cc(CN2CCN(C(=O)c3ccc(F)cc3C)CC2=O)c1	-12%	2.56
Cc1nc(C)c(C(=O)Nc2cccc(C(=O)N3CCc4sccc4C3)c2C)s1	-5%	0.48
CCn1nc(C)c(-c2cc(-c3c(C)nn(C)c3C)c(C#N)c(N)n2)c1C	-4%	0.68
Cc1ccc(C2c3ccsc3CCN2CCC(=O)N2CCN(C(=O)Cc3cccs3)C(C)C2)cc1 (configuration not stated)	29%	-2.41
CC(C)CCN1C[C@@H]2Oc3ccccc3C(=O)N(C)[C@@H]2C1	-1%	0.21
CC1(C)[C@H](Cc2cc(CCO)on2)C[C@@H]1NS(=O)(=O)c1ccc(F)cc1	3%	-0.51
Cc1csc([C@H](C)NC(=O)CN(C)CCO)n1	-10%	1.98
O=C(NCCOC1CCCCCC1)c1cn[nH]c1	4%	-0.8
CC(=O)N1CCC(NC(=O)N2CCCC2CC2CC3CCC2C3)CC1 (configuration not stated)	7%	-0.93
CCc1nc(-c2cccs2)n(C[C@@H](O)CC)n1	-1%	0.09
CC(C)CC(=O)N[C@@H](Cc1ccccc1)c1nnc(N2CCN(C)CC2)o1	-1%	0.06

Structure (SMILES)	% Inhibition	Z score
NS(=O)(=O)c1cnc(N2CCCCCC2)s1	28%	-3.73
c1nc(CN2CCC(NCc3cnc(C4CCC4)s3)CC2)cs1	-8%	1.05
COC[C@H]1CN(C(=O)c2cccc(C)n2)CCC1(F)F	-9%	1.74
CC(=O)N1CC[C@@]2(CO)CN(S(=O)(=O)c3ccc(F)cc3)C[C@H]2C1	8%	-0.94
CCCCCOc1ccc([C@]2(C)C(=O)N(CN3CCOCC3)C(=O)N2CN2CCOCC2)cc1	4%	-0.46
CN(CCNc1cc([C@H]2CCOC2)ncn1)C(=O)CN1CCCCC1=O	-17%	2.27
C[C@@]1(C2CC2)CN(Cc2ccc3cc[nH]c3c2)CCO1	2%	-0.4
C=CCc1cccc(C(C)C)c1NC(=O)N1CC[C@H](O)C1	-7%	0.71
COc1ccncc1NC(=O)C1CCCOC1c1ccc(C)cc1 (configuration not stated)	0%	-0.06
NC(=O)C[C@H](NC(=O)CCc1ccoc1)C1CCCCC1	-1%	0.11
Cc1nn(C(C)C)c(C)c1CC(=O)N1CCC2(CC1)CNC(=O)N2C	-4%	0.57
CC(C)c1ccc(-c2ccnc3c(C(=O)NCc4ccccn4)cnn23)cc1	32%	-3.65
CC1CCCN(CC(C)NS(=O)(=O)CC2(C#N)CC2)C1 (configuration not stated)	-6%	0.82
COCCc1nc(CCc2cnn(C)c2)n(-c2cccc3c2CCC3)n1	-7%	1.32
O=C(c1c(F)c(F)c(-n2c3ccccc3c3ccccc32)c(F)c1F)C(F)(F)F	-1%	0.12
CC1CN(CCCNC(=O)c2cccc(=O)[nH]2)CC(C)O1 (configuration not stated)	-14%	1.99
CC(C)c1ccc(C2=Nc3ncnn3/C2=N/Cc2ccccc2)cc1	0%	-0.01
C[C@H](NC(=O)CNC(=O)OCc1ccccc1)C(N)=O (Cbz-Gly-Ala-NH2)	-4%	0.72
c1cc(Cn2ccnc2)cc(NC2CCCCCCC2)c1	-14%	1.29
O=C(CC1=CCCCC1)Nc1ccn(CC(F)F)n1	5%	-0.74
Cc1cnc(COc2ccc(C)c(F)c2)o1	0%	0.07
Cc1ncc(CN(C)C(=O)CC2CCCCC2)s1	-14%	1.94

Structure (SMILES)	% Inhibition	Z score
CNC(=O)c1ccc(N2C[C@@H](C(F)(F)F)OC(C)(C)C2)nc1	-1%	0.19
CCCn1c(-c2cccc(C(=O)NC3CCCC3)c2)nc2cccnc21	-11%	1.49
CN(C)S(=O)(=O)N(CCC(F)(F)F)C1CCCCC1	-2%	0.36
Cc1ccccc1-n1ncnc1CC1CCNCC1	-6%	0.89
O=C(O)c1ccc(OCCN2CCCC2C2CCCOC2)c(Cl)c1 (configuration not stated)	-5%	0.72
CN(Cc1cccnc1)C(=O)c1ccsc1	13%	-1.16
CCc1c(C)c(C(=O)NCCc2ccc(OC)c(OC)c2)n(Cc2ccc(C)cc2)c1C	-2%	0.18
CN(CC=Cc1ccc(F)cc1)Cc1cnn(C)c1	-6%	0.65
C[C@@H](C(=O)N(C)C)S(=O)(=O)N1CCN(C)CC12CCCCC2	-5%	0.66
O=C(NCc1noc(Cc2cccs2)n1)c1cnc2ccccn12	-2%	0.41
C[C@](O)(CNC(=O)C1CCCC1)c1cccs1	-1%	0.12
CCn1cc(C(=O)Nc2ccc(-n3ccnn3)cc2)c(C(F)(F)F)n1	-5%	0.6
O=C(Nc1ccc(-c2ccn[nH]2)cc1)[C@H]1CCCN(Cc2cccc3nonc23)C1	3%	-0.44
CCn1ccnc1CN(C)C(=O)CN(C)CCOC	-18%	3.08
Cc1ccc(OC(=O)c2ccccc2Cl)c(-n2nc3ccccc3n2)c1	-11%	1.27
COc1ccc(CNc2nc(-c3ccc(C)cc3)nnc2C)cc1	5%	-0.99
Cc1ccc(-n2c(=O)c3ccccc3n(CC(=O)N3CCCC3)c2=O)cc1C	5%	-0.55
Cn1ncnc1CNc1cccc(Cl)c1Br	37%	-4.81
O=C(O)CCc1cc2n(n1)CCCN(Cc1cc3c(cc1Cl)OCO3)C2	-5%	0.84
CC(C)[C@H](CNC(=O)CCC1CCCC1)c1cccnc1	3%	-0.23
